Among all 44,000 compounds or so, about 340 (0.77%) were called active. About 5% were inconclusive and are not listed. The call rests on the fitted dose curve; in most records, active means well fitted inhibition curve with a large enough effect; inconclusive means small, poorly fitted or top-dose-only effect; inactive means flat fitted curve, though single readings scatter. Some of the results follow.
Test: Acumen qHTS Assay for Inhibitors of the mTORC1 Signaling Pathway in MEF (Tsc2-/-, p53-/-) Cells: Sytravon;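 further: plate controls were DMSO for no effect and rapamycin for full effect; nearly all actives have a fitted effect of over 50% in size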
Conditions: phospho-rpS6 immunofluorescence/PI, 24 h; series mostly up to 38.3 µM; activity change, negative = inhibition: at the top concentration
How it was run: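 Plate MEFs (Tsc2-/-, p53-/-, empty vector) in DMEM/10% FBS; after 24 h add compound, incubate 24 h at 37 degree Celsius; fix in PFA/TX-100, block, stain phospho-rpS6 and 10 uM PI; scan at 488 nm; report % positive cells.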

Activity change, negative = inhibition, inactive:
Cc1ccccc1OCC(=O)OCc1cc(=O)n2ccsc2n1 -6.87%
Cc1ccc2cc3cc(C(=O)Nc4ccc(F)cc4Cl)oc3nc2c1 -10.3%
CCN(CC)S(=O)(=O)c1ccc2c(c1)N(CC(=O)N1CCN(c3cccc(C(F)(F)F)c3)CC1)C(=O)CO2 -8.9%
Cc1ccc(Cl)cc1N1CCN(CCNC(=O)Nc2ccc(Cl)cc2)CC1 -29%
COc1ccc(N2CCN(C(=O)c3nc(-c4ccc(Cl)cc4)n4c3CCCCC4)CC2)cc1 -16.2%
CCOc1ccc(CNC(=O)c2ccc(CS(=O)c3ccccc3)o2)cc1 (stereo not drawn) 3.66%
O=C(C1CCN(S(=O)(=O)c2cccc3nonc23)CC1)N1CCN(c2ccccc2)CC1 1.64%
COc1ccc(NC(=O)c2nnn(Cc3ccc(Br)cc3F)c2N)c(OC)c1 -19.8%
CS(=O)(=O)N1CCc2cc(C(=O)N3CCN(c4ccc(F)cc4)CC3)ccc21 -4.28%
Cc1ccc(N2CC(NC(=O)c3ccc4c(c3)OCO4)CC2=O)cc1 (stereo not drawn) -0.185%
Cc1ccccc1NC(=O)Cn1nc(-c2ccc(F)cc2)c2cnc3ccccc3c21 4.52%
CCOc1ccc(-c2c(C)nn3c(C)c(C(=O)NCc4ccc(C)o4)cnc23)cc1OCC 0.395%
Cc1cc(N2CCC(C)CC2)nc2ccc(NC(=O)/C=C/c3cccc(Cl)c3)cc12 -20.2%
CCc1ccccc1NC(=O)CSc1nnc(CC)c(CC)n1 -13.8%
CSc1ccc(CNC(=O)c2cc3c(=O)n(Cc4ccco4)ccc3nc2C)cc1 0.134%
Cc1ccc2nc(NC(=O)c3cc(=O)c4cc(Cl)ccc4o3)sc2c1 4.38%
Cn1c(Oc2ccc(F)cc2)nc2c1c(=O)n(Cc1ccccc1Cl)c(=O)n2C -24.4%
O=C(NCCc1ccc(Cl)cc1)c1ccc(CS(=O)(=O)Cc2ccccc2F)o1 -1.28%
CC(=O)N1CCc2c(sc3c2c(=O)n(-c2ccc(C)cc2)c(=O)n3CC(=O)Nc2ccccc2)C1 -10.6%
COc1ccccc1NC(=O)c1c(NC(=O)c2ccccc2F)sc2c1CCC2 4.56%
COc1ccc(Cn2ccc3nc(C)c(C(=O)Nc4ccc(C)c(F)c4)cc3c2=O)cc1 -4.87%
Cc1ccc(-c2cc(C(=O)NCc3ccccc3)c3c(-c4ccc(C)cc4)[nH]nc3n2)cc1 8.18%
COC(=O)c1c(NC(=O)c2ccccc2C(=O)O)sc2c1CCCC2 4.16%
CCSc1nc2c(c(=O)[nH]c(=O)n2C)n1CC(O)COc1ccc(Cl)cc1 (stereo not drawn) -6.91%
COc1ccc(N2CCN(C(=O)c3ccc4c(c3)CCN4S(C)(=O)=O)CC2)cc1 -2.13%
Cc1c(Cl)cccc1NC(=O)Cn1nc(C)c2sc3ccccc3c2c1=O -0.377%
Cc1ccc(C)c(S(=O)(=O)c2nnn3c2nc(Nc2ccc(F)c(Cl)c2)c2sccc23)c1 0.316%
Cc1nc(SCC(=O)Nc2ccc(Br)cc2)[nH]c(=O)c1Cc1ccccc1 2.61%
Cc1ccc2c(c1)N(C(=O)N1CCC(C(=O)NCc3ccco3)CC1)CC(C)O2 (stereo not drawn) 6.32%
Cc1ccc(S(=O)(=O)CCC(=O)N2CCN(c3nc4c(C)c(Cl)ccc4s3)CC2)cc1 -8.59%
CCc1ccc(OCC(=O)NCc2nc(-c3cccc(C)c3)no2)c(Br)c1 -5.14%
COc1cc(C(=O)N2CCc3c([nH]c4ccccc34)C2c2ccccc2)cc(OC)c1OC (stereo not drawn) 0.841%
CC(=O)N1CCC2(CC1)OC(=O)C(C)=C2C(=O)Nc1ccccc1C(F)(F)F -12.8%
CCOC(=O)C1CCN(C(=O)Cn2ncc3c([nH]c4ccc(C)cc43)c2=O)CC1 2.99%
Cc1cccc(N(CC(=O)NCCSc2ccc(Cl)cc2)S(=O)(=O)c2ccccc2)c1C -18.5%
COc1ccccc1OCCn1c(-c2ccc(Br)cc2)nc2ccccc2c1=O 2.12%
CSc1ncc(C(=O)N2CCN(c3ccc(F)cc3)CC2)c(C)n1 2.31%
COc1cccc(-c2nn(C)c3sc(C(=O)N4CCN(c5cccc(C)c5)C(C)C4)cc23)c1 (stereo not drawn) 0.468%
COc1ccccc1CCNC(=O)Cn1ccc2cc(S(=O)(=O)N3CCCCCC3)ccc21 -14.4%
CCc1nnc(SCc2nc(-c3ccc(OC)cc3)oc2C)c2cc3sccc3n12 2.21%
Cc1ccc(C)c(N2CCN(C(=O)c3cc(S(=O)(=O)N4CCCC4)cn3C)CC2)c1 11.3%
CCOC(=O)C1CCC(CN(Cc2c(Cl)cccc2Cl)S(=O)(=O)c2ccc(F)cc2)CC1 (stereo not drawn) 6.02%
Cc1sc2c(c1C)c(=O)n(-c1cccc(C(F)(F)F)c1)c(=O)n2Cc1ccccc1C#N -0.44%
Cc1ccccc1NC(=O)CN1C(=O)CCn2nc(-c3cccn3C)cc21 -0.562%
Cc1ccccc1-c1noc(CSc2nnc(-c3ccncc3)n2-c2ccc(F)cc2)n1 -4.81%
Cc1ccc(OCCCCn2c(CCNC(=O)C(C)(C)C)nc3ccccc32)cc1 5.41%
CCCCn1c(-c2ccc(C)cc2)c(C)n2c3c(=O)n(C)c(=O)n(C)c3nc12 -2.88%
Cc1ncc(CO)c2c1Oc1nc(-c3ccccc3)nc(SCC(=O)Nc3cccc(C(F)(F)F)c3)c1C2 -5.72%

From PubChem BioAssay AID493208 (National Center for Advancing Translational Sciences (NCATS), 2011)
